From ChEMBL document CHEMBL4888484, “Replenishing the malaria drug discovery pipeline: Screening and hit evaluation of the MMV Hit Generation Library 1 (HGL1) against asexual blood stage Plasmodium falciparum ,using a nano luciferase reporter read-out” (2022)
In all, about 150,000 compounds went through this assay and about 540 (0.36%) showed an effect of 50% or more. The list shows a part of the results.

tested on: Plasmodium falciparum; test: Primary screen in NF54 nanoGlo assay, in single point, at 2uM, 72h; a lower Z score goes with more inhibition; format: functional, Erythrocyte; conditions: timepoint 72 hour

SMILES | % Inhibition [%] | Z score
CC(C)CC[C@H]1CCCCN1C(=O)C(=O)Nc1cccnc1 | 7 | -0.9
COc1ccc(CC(=O)NCCNC(=O)c2nc(CCn3ccc4ccccc43)no2)cc1 | -16 | 2.95
COc1ccc(-c2nc(-c3nnn4c3CO[C@H](c3ccc(Cl)cc3)C4)no2)c(OC)c1 | -8 | 1.48
O=C1C2C(c3cccs3)NC(Cc3ccccc3)(C(=O)O)C2C(=O)N1c1ccc(F)cc1 (centres undefined) | -8 | 0.94
CN(C)c1ccc(C2(C3(c4ccc(N(C)C)cc4)C(=O)c4ccccc4C3=O)C(=O)c3ccccc3C2=O)cc1 | -7 | 0.98
Cc1nn(-c2cc(N3CCCC3)ncn2)c(C)c1CCC(=O)N1CCOCC1 | -15 | 2.89
CNCCOc1cccc(-c2cccc(-c3cc[nH]n3)c2)c1 | -9 | 1.36
Cc1nnc([C@@H](NC(=O)c2ccccc2F)C(N)=O)o1 | -5 | 0.66
CS(=O)(=O)[C@H]1CCCN(C(=O)CCC2CC2)C1 | -10 | 1.45
COC[C@@]1(CNC(=O)c2cc(C(N)=O)c[nH]2)CCCN1C(=O)OC(C)(C)C | -19 | 3.32
CCN1CCC2CCC(C1)N2C(=O)C(=O)Nc1cccc(C)c1C#N (centres undefined) | -7 | 1.05
CCn1ccc2cc(CCC(=O)NC3CCCC3)ccc21 | -1 | 0.08
COc1cc(Cl)ccc1-c1nc(-c2cccc(-c3ccn[nH]3)c2)no1 | -20 | 2.41
CC(C)N(CCOCCO)c1cnc(C#N)cn1 | -7 | 0.66
O=C(c1cccn2c(=O)c3cc(Cl)ccc3nc12)N1CCN(Cc2ccccc2)CC1 | -4 | 0.46
O=C1c2ccccc2C(=O)N1CCn1ncccc1=O | 1 | -0.18
O=C1CC2(CCN(Cc3ccc(C(F)(F)F)cc3)CC2)CN1 | 22 | -2.86
Cc1cc(-c2ccc(C(=O)N3CCN(C)[C@@H](CCO)C3)cc2)nc2ccccc12 | -4 | 0.69
O=C(CN1C(=O)CCc2cc(Br)ccc21)NCCc1ccccc1 | -7 | 0.9
Cc1cccc(S(=O)(=O)Nc2ccc(-n3nn[nH]c3=O)cc2)c1F | -12 | 1.09
c1ccc(-c2noc(-c3ccc(N4CCc5ccccc5C4)nn3)n2)cc1 | -15 | 2.15
C[C@H](C#N)CNCc1c(CNC(=O)OC(C)(C)C)cnn1C | 8 | -1.05
CC(=O)N[C@@H]1C=C[C@@H](c2c(C)nn(-c3ccc(C(C)(C)C)cc3)c2C)C1 | 13 | -1.55
CC(=O)N(C)c1cccc(NC(=O)NC2(C)Cc3ccccc3C2)c1 | -1 | 0.1
C[C@H]1CCCCN1CC(=O)NCCC1=CCCCC1 | -16 | 2.06
c1ccc2c(-c3noc4c3CN(C[C@H]3CCCO3)CC4)cccc2c1 | -2 | 0.39

SMILES | % Inhibition [%] | Z score
CCN1CC(=O)N(Cc2cnc3n2CCCC3)C1=O | -10 | 0.98
O=C(Cn1cnnn1)N(CC(F)(F)F)c1cccc(Cl)c1 | -2 | 0.45
CC(C)(C)n1cc(C(=O)N2CCc3ccc(C#N)cc32)nn1 | -2 | 0.4
CC(C)(C)CC(=O)N[C@@H]1CC[C@H]2CCOc3ccccc3C(=O)N3CCN(Cc4ccc(C(F)(F)F)cc4)C[C@H]3C(=O)NC[C@H]1O2 | -6 | 1.18
CN(C(=O)[C@@H]1COCCN1CC1CCC1)C1CCC1 | -6 | 0.75
CC(=O)Nc1ccc(S(=O)(=O)NCCc2cc(C)no2)cc1 | -3 | 0.53
CC1CCC(C)N1C(C)C(=O)NC(CO)Cc1c[nH]c2ccccc12 (centres undefined) | -10 | 0.99
CC(=O)Nc1ccc(C(=O)Nc2cccnc2O)cn1 | -21 | 2.89
N#Cc1ccc(N2CC=C(c3ccccc3F)C2)nc1 | -4 | 0.53
CC1(C)CCC[C@@]1(O)CNc1cncc(C#N)n1 | -5 | 0.7
Cc1cccc(-c2nn(-c3ccccc3)c3nc(OCC(=O)NCc4ccccc4C)cc(C)c23)c1 | -5 | 0.65
O=C(Nc1nc2c(s1)CN(S(=O)(=O)c1c(F)cccc1F)CC2)c1ccco1 | -5 | 0.7
O=C1NC(c2ccc3c(c2)OCO3)C(C(=O)c2ccc(F)cc2)C(O)(C(F)(F)F)N1 (centres undefined) | -1 | 0.09
CCc1nnc(Cn2cc(-c3ccc(OC)c(OC)c3)nn2)s1 | -10 | 1.95
O=C(O)c1cnc(C=Cc2cccc(Oc3ccccc3)c2)[nH]c1=O | -9 | 0.85
Cc1cccc2c1CC(C)(C)N(C(=O)Cc1cnn(C)c1C)C2 | -6 | 0.97
Cc1nc([C@H]2CCCN(Cc3ccc(C(=O)O)s3)C2)sc1C | -7 | 1.07
Cc1nc([C@H](C)N(C)C(=O)c2ncc[nH]2)c(C)s1 | -14 | 2.6
Cc1ccc2cc(CN3CCN(c4cc(N)nc(N)n4)CC3)c(O)nc2c1 | -1 | 0.16
Cc1cnc(C)c(NC[C@H]2CCCN2C(C)C)n1 | 6 | -1.17
CC(C)N(C)S(=O)(=O)N(C)Cc1cccnc1 | -10 | 1.01
CN(Cc1ncccn1)c1nc(C2CCOCC2)ns1 | -1 | 0.13
COc1ccc(-c2nc(=O)c(CCC(=O)N3CCc4ccccc4C3)n[nH]2)cc1 | -6 | 0.55
C/C=C(\C)C(=O)N1CCC(c2cn(Cc3ccc(C(F)(F)F)cc3)c3ccccc23)CC1 | -5 | 0.42
CCCCN(Cc1ccccc1)C(=O)C[C@]1(c2cccc(F)c2)CC(=O)N(C)C1=O | -8 | 1.09
CCC[C@H]1CN(S(C)(=O)=O)C[C@@H]1NC(=O)c1ccc(C#N)nc1 | -4 | 0.59
